We go through one molecule from the supplement of paper PMC8728848.

Common to all, as to experiment: glycan array binding signal (z-score within array); higher = stronger binding
What all share (conditions): glycan notation: IUPAC condensed, linker removed

The target of experiment [1] is Gal(b1-4)GlcNAc(b1-2)[Gal(b1-4)GlcNAc(b1-6)]Man(a1-6)[GlcNAc(b1-4)][Gal(b1-4)GlcNAc(b1-2)Man(a1-3)]Man(b1-4)GlcNAc(b1-4)GlcNAc. In short, it runs like this: (§1)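 The binding signal is a Z-score computed within each array. Data were drawn from 3228 arrays in the Consortium for Functional Glycomics database, restricted to those with a known protein sequence. Scores were averaged over arrays of the same protein sequence at different concentrations or buffers, and over linkers, and negative values can be taken as non-binding.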

Experiment [2] concerns the target Gal(b1-4)GlcNAc(b1-2)[Gal(b1-4)GlcNAc(b1-6)]Man(a1-6)[GlcNAc(b1-4)][Gal(b1-4)GlcNAc(b1-2)[Gal(b1-4)GlcNAc(b1-4)]Man(a1-3)]Man(b1-4)GlcNAc(b1-4)[Fuc(a1-6)]GlcNAc. In short, it runs like this:
as §1

For experiment [3], the target named is Gal(b1-4)GlcNAc(b1-3)Gal(b1-3)GalNAc. In short, it runs like this:
as §1

Experiment [4] concerns the target Gal(b1-4)GlcNAc(b1-3)Gal(b1-3)GlcNAc. The essentials: as §1
The target in experiment [5] is Gal(b1-4)GlcNAc(b1-3)Gal(b1-4)Glc. The essentials:
as §1

The target in experiment [6] is Gal(b1-4)GlcNAc(b1-3)Gal(b1-4)GlcNAc. In short, it runs like this:
as §1

Experiment [7] deals with Gal(b1-4)GlcNAc(b1-3)Gal(b1-4)GlcNAc(b1-2)Man(a1-3)[Gal(b1-4)GlcNAc(b1-3)Gal(b1-4)GlcNAc(b1-2)Man(a1-6)]Man(b1-4)GlcNAc(b1-4)GlcNAc. The essentials:
as §1

Experiment [8] has as its target Gal(b1-4)GlcNAc(b1-3)Gal(b1-4)GlcNAc(b1-2)Man(a1-3)[Gal(b1-4)GlcNAc(b1-3)Gal(b1-4)GlcNAc(b1-2)Man(a1-6)]Man(b1-4)GlcNAc(b1-4)[Fuc(a1-6)]GlcNAc. In short, it runs like this: as §1
The target in experiment [9] is Gal(b1-4)GlcNAc(b1-3)Gal(b1-4)GlcNAc(b1-2)[Gal(b1-4)GlcNAc(b1-3)Gal(b1-4)GlcNAc(b1-6)]Man(a1-6)[Gal(b1-4)GlcNAc(b1-3)Gal(b1-4)GlcNAc(b1-2)Man(a1-3)]Man(b1-4)GlcNAc(b1-4)GlcNAc. In short, it runs like this: as §1
Experiment [10] deals with Gal(b1-4)GlcNAc(b1-3)Gal(b1-4)GlcNAc(b1-2)[Gal(b1-4)GlcNAc(b1-3)Gal(b1-4)GlcNAc(b1-6)]Man(a1-6)[Gal(b1-4)GlcNAc(b1-3)Gal(b1-4)GlcNAc(b1-2)Man(a1-3)]Man(b1-4)GlcNAc(b1-4)[Fuc(a1-6)]GlcNAc. The essentials: as §1
The target of experiment [11] is Gal(b1-4)GlcNAc(b1-3)Gal(b1-4)GlcNAc(b1-3)Gal(b1-4)GlcNAc. In short, it runs like this:
as §1

Experiment [12] has as its target Gal(b1-4)GlcNAc(b1-3)Gal(b1-4)GlcNAc(b1-3)Gal(b1-4)GlcNAc(b1-2)Man(a1-3)[Gal(b1-4)GlcNAc(b1-3)Gal(b1-4)GlcNAc(b1-3)Gal(b1-4)GlcNAc(b1-2)Man(a1-6)]Man(b1-4)GlcNAc(b1-4)GlcNAc. In short, it runs like this: as §1
The target in experiment [13] is Gal(b1-4)GlcNAc(b1-3)Gal(b1-4)GlcNAc(b1-3)Gal(b1-4)GlcNAc(b1-2)Man(a1-3)[Gal(b1-4)GlcNAc(b1-3)Gal(b1-4)GlcNAc(b1-3)Gal(b1-4)GlcNAc(b1-2)Man(a1-6)]Man(b1-4)GlcNAc(b1-4)[Fuc(a1-6)]GlcNAc. The essentials:
as §1

The target in experiment [14] is Gal(b1-4)GlcNAc(b1-3)Gal(b1-4)GlcNAc(b1-3)Gal(b1-4)GlcNAc(b1-2)[Gal(b1-4)GlcNAc(b1-3)Gal(b1-4)GlcNAc(b1-3)Gal(b1-4)GlcNAc(b1-6)]Man(a1-6)[Gal(b1-4)GlcNAc(b1-3)Gal(b1-4)GlcNAc(b1-3)Gal(b1-4)GlcNAc(b1-2)Man(a1-3)]Man(b1-4)GlcNAc(b1-4)[Fuc(a1-6)]GlcNAc. In short, it runs like this: as §1
Experiment [15] addresses Gal(b1-4)GlcNAc(b1-3)Gal(b1-4)GlcNAc(b1-3)Gal(b1-4)GlcNAc(b1-3)Gal(b1-4)GlcNAc(b1-2)Man(a1-3)[Gal(b1-4)GlcNAc(b1-3)Gal(b1-4)GlcNAc(b1-3)Gal(b1-4)GlcNAc(b1-3)Gal(b1-4)GlcNAc(b1-2)Man(a1-6)]Man(b1-4)GlcNAc(b1-4)GlcNAc. The essentials:
as §1

Experiment [16] deals with Gal(b1-4)GlcNAc(b1-3)Gal(b1-4)GlcNAc(b1-3)Gal(b1-4)GlcNAc(b1-3)Gal(b1-4)GlcNAc(b1-2)Man(a1-3)[Gal(b1-4)GlcNAc(b1-3)Gal(b1-4)GlcNAc(b1-3)Gal(b1-4)GlcNAc(b1-3)Gal(b1-4)GlcNAc(b1-2)Man(a1-6)]Man(b1-4)GlcNAc(b1-4)[Fuc(a1-6)]GlcNAc. The essentials: as §1
In experiment [17] the target is Gal(b1-4)GlcNAc(b1-3)Gal(b1-4)GlcNAc(b1-3)Gal(b1-4)GlcNAc(b1-3)Gal(b1-4)GlcNAc(b1-2)[Gal(b1-4)GlcNAc(b1-3)Gal(b1-4)GlcNAc(b1-3)Gal(b1-4)GlcNAc(b1-3)Gal(b1-4)GlcNAc(b1-6)]Man(a1-6)[Gal(b1-4)GlcNAc(b1-3)Gal(b1-4)GlcNAc(b1-3)Gal(b1-4)GlcNAc(b1-3)Gal(b1-4)GlcNAc(b1-2)Man(a1-3)]Man(b1-4)GlcNAc(b1-4)[Fuc(a1-6)]GlcNAc. The essentials:
as §1

The target in experiment [18] is Gal(b1-4)GlcNAc(b1-3)Gal(b1-4)GlcNAc(b1-3)Gal(b1-4)GlcNAc(b1-3)Gal(b1-4)GlcNAc(b1-3)Gal(b1-4)GlcNAc(b1-2)Man(a1-3)[Gal(b1-4)GlcNAc(b1-3)Gal(b1-4)GlcNAc(b1-3)Gal(b1-4)GlcNAc(b1-3)Gal(b1-4)GlcNAc(b1-3)Gal(b1-4)GlcNAc(b1-2)Man(a1-6)]Man(b1-4)GlcNAc(b1-4)GlcNAc. In short, it runs like this: as §1
Experiment [19] concerns the target Gal(b1-4)GlcNAc(b1-3)Gal(b1-4)GlcNAc(b1-3)Gal(b1-4)GlcNAc(b1-3)Gal(b1-4)GlcNAc(b1-3)Gal(b1-4)GlcNAc(b1-2)Man(a1-3)[Gal(b1-4)GlcNAc(b1-3)Gal(b1-4)GlcNAc(b1-3)Gal(b1-4)GlcNAc(b1-3)Gal(b1-4)GlcNAc(b1-3)Gal(b1-4)GlcNAc(b1-2)Man(a1-6)]Man(b1-4)GlcNAc(b1-4)[Fuc(a1-6)]GlcNAc. The essentials: as §1
Experiment [20] has as its target Gal(b1-4)GlcNAc(b1-3)Gal(b1-4)GlcNAc(b1-3)Gal(b1-4)GlcNAc(b1-3)Gal(b1-4)GlcNAc(b1-3)Gal(b1-4)GlcNAc(b1-2)[Gal(b1-4)GlcNAc(b1-3)Gal(b1-4)GlcNAc(b1-3)Gal(b1-4)GlcNAc(b1-3)Gal(b1-4)GlcNAc(b1-3)Gal(b1-4)GlcNAc(b1-6)]Man(a1-6)[Gal(b1-4)GlcNAc(b1-3)Gal(b1-4)GlcNAc(b1-3)Gal(b1-4)GlcNAc(b1-3)Gal(b1-4)GlcNAc(b1-3)Gal(b1-4)GlcNAc(b1-2)Man(a1-3)]Man(b1-4)GlcNAc(b1-4)[Fuc(a1-6)]GlcNAc. The essentials:
as §1

Experiment [21] addresses Gal(b1-4)GlcNAc(b1-3)Gal(b1-4)GlcNAc(b1-3)Gal(b1-4)GlcNAc(b1-3)Gal(b1-4)GlcNAc(b1-3)Gal(b1-4)GlcNAc(b1-3)Gal(b1-4)GlcNAc(b1-2)Man(a1-3)[Gal(b1-4)GlcNAc(b1-3)Gal(b1-4)GlcNAc(b1-3)Gal(b1-4)GlcNAc(b1-3)Gal(b1-4)GlcNAc(b1-3)Gal(b1-4)GlcNAc(b1-3)Gal(b1-4)GlcNAc(b1-2)Man(a1-6)]Man(b1-4)GlcNAc(b1-4)GlcNAc. The essentials:
as §1

Experiment [22] addresses Gal(b1-4)GlcNAc(b1-3)Gal(b1-4)GlcNAc(b1-3)GalNAc. In short, it runs like this: as §1
Experiment [23] concerns the target Gal(b1-4)GlcNAc(b1-3)Gal(b1-4)GlcNAc(b1-3)[Gal(b1-4)GlcNAc(b1-3)Gal(b1-4)GlcNAc(b1-6)]GalNAc. The essentials: as §1

This is one part of the list.

B1: LngA (Escherichia coli) (protein)
chain: MLSVYNRTQKFKAEARKKIAKYHELRKQRGMSLLEVIIVLGIIGTIAAGVVILAQRAFDSRAVTDLVTNTNTVRVRMKDAYQRDGKYPDFVDPLSLTANTIKTDTSGIPAAQLVQLGKITPDEVRNNISGDFIAIGGALTSNGAQVKKGFAIELNGLSQEQCRSILGQVGNNWEYVAIGTSASGSYAMTATGVDMSVAASTTVLRSLGNNGQTTLTADKILSTCTAQVNSITLGSR
As to B1, the “glycan array binding signal (z-score)” value in experiment [1] was -0.286; in experiment [2], -0.507; in experiment [3] it was -0.312; in experiment [4] it was -0.538; in [5] it was -0.362; in [6], -0.338. In addition, the “glycan array binding signal (z-score)” value is 3.2 in [7]; -0.289 in [8]; 1.57 in experiment [9]; 4.27 in experiment [10]; -0.468 in experiment [11]; 3.43 in experiment [12]. In addition, the “glycan array binding signal (z-score)” value in experiment [13] is -0.163; in experiment [14], 2.23; in experiment [15] it was 0.575; in experiment [16], 1.11; in [17], 1.43; in experiment [18], -0.387. The “glycan array binding signal (z-score)” value in experiment [19] was 0.707; in [20], 0.029; in [21], -0.224; in experiment [22], -0.356; in experiment [23], 0.33.
